Reference: paper PMC4336329 (PLoS ONE, 2015)
Out of some 310,000 compounds screened, about 14,000 (4.5%) showed an effect of 50% or more. The effect is printed as a negative number. The list shows a part of the results.

Target: human ether-à-go-go-related gene (hERG) potassium channel (human, UniProt Q12809)
Experiment: primary screen, population patch clamp on CHO cells stably expressing hERG
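Also: peak tail current of the secondary pulse compared with the same well before compound.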

human ether-à-go-go-related gene (hERG) potassium channel, sequence (Q12809 whole entry, looked up): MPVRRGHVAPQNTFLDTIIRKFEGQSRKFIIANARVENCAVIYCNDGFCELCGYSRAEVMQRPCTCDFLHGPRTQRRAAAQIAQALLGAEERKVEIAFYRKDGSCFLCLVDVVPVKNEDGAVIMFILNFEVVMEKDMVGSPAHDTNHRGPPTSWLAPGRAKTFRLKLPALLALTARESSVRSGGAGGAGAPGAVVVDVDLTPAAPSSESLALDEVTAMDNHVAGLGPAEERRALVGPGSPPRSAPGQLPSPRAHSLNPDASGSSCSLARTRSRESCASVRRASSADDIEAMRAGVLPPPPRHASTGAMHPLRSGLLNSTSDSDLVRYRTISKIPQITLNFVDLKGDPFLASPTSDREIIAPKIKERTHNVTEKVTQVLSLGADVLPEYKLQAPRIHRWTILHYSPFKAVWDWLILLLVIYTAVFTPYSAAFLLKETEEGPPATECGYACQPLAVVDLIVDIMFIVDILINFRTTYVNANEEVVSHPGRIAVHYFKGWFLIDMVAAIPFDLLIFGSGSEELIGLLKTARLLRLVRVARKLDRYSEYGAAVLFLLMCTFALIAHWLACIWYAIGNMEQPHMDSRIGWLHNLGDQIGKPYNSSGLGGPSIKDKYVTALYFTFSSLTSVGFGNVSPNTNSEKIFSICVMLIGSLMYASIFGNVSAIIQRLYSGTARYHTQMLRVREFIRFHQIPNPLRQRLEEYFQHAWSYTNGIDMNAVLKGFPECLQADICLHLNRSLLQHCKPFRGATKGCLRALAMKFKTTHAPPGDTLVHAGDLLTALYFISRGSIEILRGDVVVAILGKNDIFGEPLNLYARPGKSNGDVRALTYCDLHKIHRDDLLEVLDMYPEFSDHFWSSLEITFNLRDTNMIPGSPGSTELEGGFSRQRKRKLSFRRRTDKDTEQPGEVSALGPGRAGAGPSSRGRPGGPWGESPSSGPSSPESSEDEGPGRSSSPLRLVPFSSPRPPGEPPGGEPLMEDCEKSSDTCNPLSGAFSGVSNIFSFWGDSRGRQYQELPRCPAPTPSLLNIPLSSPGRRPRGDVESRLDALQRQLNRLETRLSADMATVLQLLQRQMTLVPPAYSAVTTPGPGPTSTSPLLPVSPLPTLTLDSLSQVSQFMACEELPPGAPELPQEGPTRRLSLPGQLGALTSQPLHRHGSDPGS

Row | Compound | hERG current change (%, negative = inhibition) at 10uM [%]
1 | Cc1ccc(S(=O)(=O)N(C)C)cc1NC(=O)COC(=O)C1CCCC1 | 3.16
2 | CCN(C(=O)c1cc2ccccc2o1)C12CC3CC(CC(C3)C1)C2 | 11.4
3 | Cc1ccc(-n2nnc3c(=O)n(CC(=O)N4CCCC4)cnc32)cc1 | -26.7
4 | Cc1noc(C)c1COc1ccccc1C(=O)NC(C)c1ccc(Cl)cc1 (stereo not shown) | -55.8
5 | O=[N+]([O-])c1ccccc1/C=N\N1CCN(Cc2ccccc2Cl)CC1 | 9.77
6 | Cc1ccc(CNC(=O)C(=O)NCC2OCCCN2S(=O)(=O)c2cccs2)cc1 (stereo not shown) | -23.3
7 | COc1ccccc1NC(=S)NC(=O)C(C)(C)C | -9.31
8 | CC(=O)c1c(C)[nH]c(C(=O)OCC(=O)c2c(N)n(C)c(=O)n(C)c2=O)c1C | 18
9 | CCCCC(=O)Nc1ccc(NC(=S)NC(=O)CC(C)C)cc1OC | -8.21
10 | CCCCOc1ccc(C(=O)NCC(=O)NCC(c2ccc(OC)cc2)N2CCCC2)cc1 (stereo not shown) | -35.7
11 | Cc1ccc(S(=O)(=O)NC2=NCN(Cc3ccccc3)CN2)cc1 | 15.2
12 | CCCCc1ccc(NC(=O)c2ccc(N(C)S(C)(=O)=O)cc2)cc1 | 9.56
13 | CCc1ccc(NC(=O)CN2CC(c3ccccc3)CC2=O)cc1 (stereo not shown) | -27.6
14 | CC(C)CNC(=O)c1ccc(Cl)c(N)c1 | -6.74
15 | Cc1cc(C)c2c(n1)sc1c(O)cc(=O)[nH]c12 | -3.98
16 | Cc1cc(=O)oc2c(C)c(OCC(=O)NCc3ccccn3)ccc12 | 4.63
17 | CC(C)C(NC(=O)c1c(F)cccc1F)C(=O)N1CCN(S(=O)(=O)/C=C/c2ccccc2)CC1 (stereo not shown) | -25.7
18 | CCOc1nc(Nc2ccc(OC)cc2)nc(OCC)n1 | -23.4
19 | COc1cc(C(=O)NC(CCSC)C(=O)OCC(=O)NC(=O)C2CCCCC2)cc(OC)c1OC (stereo not shown) | 2.42
20 | Cc1cccc(NS(=O)(=O)c2ccc(-c3ccc(=O)[nH]n3)o2)c1 | 2.35
21 | O=C1CCCC(O)=C1Sc1cc(Cl)c(Cl)cc1Cl | 15.5
22 | O=P(CCCCCCCCCP(=O)(c1ccccc1)c1ccccc1)(c1ccccc1)c1ccccc1 | -56.1

Row | Compound | hERG current change (%, negative = inhibition) at 10uM [%]
23 | O=C(CCC(=O)c1cccs1)Nc1nc2ccccc2s1 | 11.5
24 | Cc1nc(SCC(=O)NCC2CCCO2)c2cc(-c3ccccc3)sc2n1 (stereo not shown) | -6.42
25 | CCCN1C(=O)/C(=C/c2cc(C)n(C)c2C)SC1=Nc1ccc(OCC)cc1 | 15.1
26 | Cc1c(Cl)c(C(=O)NNC(=S)Nc2ccc(F)cc2)nn1C | 28.7
27 | COc1ccccc1Oc1ccc2c(c1)C(=O)N(CC1CCCO1)C2=O (stereo not shown) | -7.89
28 | Cc1ccc(NC(=O)N2CCCN(C(=O)OC(C)(C)C)CC2)cc1Cl | -3.72
29 | COc1cccc(C(=O)Nc2nnc(-c3cccs3)o2)c1 | 4.37
30 | CC(=O)O.NC(N)=N/N=C/c1ccccc1OC(F)F | -9.69
31 | O=C(NCc1nnc(SCC(=O)N2CCCc3ccccc32)o1)c1ccccc1F | 2.41
32 | CNC(=O)Oc1ccc(-c2cn3cc(Cl)ccc3n2)cc1 | 0.0709
33 | COc1ccc(-n2nc(C(=O)NCC(=O)NC3CCCC(C)C3C)c3ccccc3c2=O)cc1 (stereo not shown) | 8.55
34 | O=C1CN(C(=O)CSc2nnc(C3CC3)n2-c2ccccc2)c2ccccc2N1 | 1.49
35 | CCCc1cc(=O)n2[nH]c(C(F)(F)F)nc2n1 | 25.7
36 | Cc1ccc(NC(=S)c2ccc(N(C)C)cc2)cc1 | 20.1
37 | CCCC(=O)Nc1sc2c(c1C#N)CCCC2 | 4.29
38 | Cc1cc(C)cc(N(CC(=O)NCC2CCCO2)C(=O)CCC(=O)Nc2cc(C)on2)c1 (stereo not shown) | 10.9
39 | CCN(CC)S(=O)(=O)N1CCC(C(=O)NCc2ccco2)CC1 | 2.3
40 | CCCC(O)(c1ccccc1)C(CN1CCOCC1)c1ccccc1.Cl (stereo not shown) | 2.54
41 | CC(C)(CNC(=O)c1cccc(F)c1)CNC(=O)c1cccc(F)c1 | -13.1
42 | CC(C(=O)NC1CCCCC1)N1C(=O)C2C3C=CC(C3)C2C1=O (stereo not shown) | 14.2
43 | COc1cccc(C(=O)Nc2cccc(-c3nnc(-c4ccco4)o3)c2)c1 | -51.4
